Hit rate of the full screen: of about 310,000 compounds, about 2,200 (0.71%) showed an effect of 50% or more. Effects have a minus sign here. The list shows a part of the results.
target: human ether-à-go-go-related gene (hERG) potassium channel (human, UniProt Q12809); test: primary screen, population patch clamp on CHO cells stably expressing hERG
Sequence (Q12809 whole entry, looked up): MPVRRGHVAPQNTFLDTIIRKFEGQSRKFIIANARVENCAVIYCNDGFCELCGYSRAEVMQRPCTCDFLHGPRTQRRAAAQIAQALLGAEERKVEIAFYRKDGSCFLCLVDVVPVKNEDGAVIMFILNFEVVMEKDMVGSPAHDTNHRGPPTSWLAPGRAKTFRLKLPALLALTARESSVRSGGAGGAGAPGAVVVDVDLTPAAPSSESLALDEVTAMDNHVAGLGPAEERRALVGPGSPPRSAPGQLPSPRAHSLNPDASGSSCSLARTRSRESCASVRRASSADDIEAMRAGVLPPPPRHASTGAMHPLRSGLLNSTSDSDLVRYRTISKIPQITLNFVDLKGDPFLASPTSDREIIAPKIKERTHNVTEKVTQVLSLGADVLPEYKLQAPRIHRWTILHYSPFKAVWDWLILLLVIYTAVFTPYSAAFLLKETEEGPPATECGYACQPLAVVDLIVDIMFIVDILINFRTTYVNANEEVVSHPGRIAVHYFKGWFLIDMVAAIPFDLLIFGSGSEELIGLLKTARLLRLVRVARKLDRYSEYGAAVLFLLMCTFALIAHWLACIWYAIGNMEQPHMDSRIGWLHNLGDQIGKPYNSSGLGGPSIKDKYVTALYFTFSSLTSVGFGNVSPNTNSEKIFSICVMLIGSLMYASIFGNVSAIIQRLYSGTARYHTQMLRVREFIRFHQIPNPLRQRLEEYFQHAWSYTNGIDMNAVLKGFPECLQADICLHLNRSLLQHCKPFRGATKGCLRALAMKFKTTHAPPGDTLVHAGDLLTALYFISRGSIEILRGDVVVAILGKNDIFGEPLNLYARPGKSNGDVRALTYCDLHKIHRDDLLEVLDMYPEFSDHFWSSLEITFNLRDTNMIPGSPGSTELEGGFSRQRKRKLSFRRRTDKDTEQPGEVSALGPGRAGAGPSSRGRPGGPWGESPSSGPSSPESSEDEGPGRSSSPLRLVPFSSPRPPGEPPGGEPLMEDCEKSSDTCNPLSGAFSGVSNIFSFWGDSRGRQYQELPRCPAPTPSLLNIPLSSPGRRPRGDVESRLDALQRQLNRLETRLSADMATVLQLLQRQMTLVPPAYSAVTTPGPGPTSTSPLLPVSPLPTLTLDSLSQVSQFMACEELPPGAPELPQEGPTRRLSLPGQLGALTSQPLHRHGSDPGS

In order of rising “hERG current change (%, negative = inhibition) at 1uM” value:
1. CCN(CC)CCCNC(=O)c1cc(-c2ccc(O)cc2)on1  -17.6%
2. c1ccc(N2CCN(c3nc4ccccc4[nH]3)CC2)nc1  -9.25%
3. COc1ccc(-c2cc(-c3ccc(OC)cc3)nc(-c3ccc4c(c3)NC(=O)CO4)c2)cc1  -6%
4. COc1c2c(cc3c1OCO3)CC[N+](C)=C2.[I-]  -3.98%
5. COc1ccc(C2c3cc(OC)c(OC)cc3CCN2C2CC(=O)N(c3ccccc3)C2=O)cc1OC (stereo not shown)  -2.75%
6. Cn1c(=NC(=O)c2ccco2)sc2cccc(F)c21  -2.48%
7. O=[N+]([O-])c1cccc(/C=N\N=C2c3ccccc3-c3ccccc32)c1O  -0.89%
8. COc1c(F)c(F)c(C(=O)Nc2ccc(N3CCN(Cc4ccccc4)CC3)cc2)c(F)c1F  0.0603%
9. CC1CCN(CCc2nc3cc(NC(=O)Nc4ccccc4)ccc3n2C)CC1  1.28%
10. Cc1cc(C)cc(NC(=O)c2cc(C)nc3ccccc23)c1  3.42%
11. COc1ccc(-c2nc3ccccc3[nH]2)cc1  4.15%
12. COc1ccc(-c2nc(CN3CCN(Cc4ccccc4)CC3)c(C)o2)cc1  4.17%
13. COc1cccc(C(=O)Cn2c(=O)n(CCC(=O)NCC3CCCO3)c(=O)c3cc(OC)c(OC)cc32)c1 (stereo not shown)  4.25%
14. O=C(CSCC(=O)Nc1ccccc1)N/N=C/c1c(O)ccc2ccccc12  4.6%
15. CC(C)(C)c1ccc(/C=C/C(=O)NC2CCS(=O)(=O)C2)cc1 (stereo not shown)  5.15%
16. COc1ccc(-c2cnc(SCC(=O)Nc3cc(C)on3)n2Cc2ccco2)cc1  5.24%
17. c1ccc(Oc2cccc(OCCCCSc3ncccn3)c2)cc1  5.69%
18. O=C(Oc1c(-c2ccccc2)c(=O)n2c3c(cccc13)CC2)c1ccccc1  7.02%
19. Cc1nn(-c2ccc(Cl)nn2)c(=O)c2ccccc12  7.5%
20. Cc1cc(C)cc(NC(=O)CSCc2nc3c(nnn3Cc3ccc(F)cc3)c(=O)[nH]2)c1  8.15%
21. CSc1nc2c(c(=O)n1-c1ccccc1)SCC2  8.99%
22. CC(=O)Cc1nsc(NC(=O)c2ccc(-c3cccc(Cl)c3)o2)n1  9.63%
23. CCc1ccc(-n2nc3ccc(NC(=O)c4ccc5c(c4)OCO5)cc3n2)cc1  9.63%
24. CCOc1ccc(S(=O)(=O)N(CC(=O)O)c2ccccc2)cc1  9.78%
25. Cc1cc(C)c2cc(C#N)c(SCC(=O)Nc3cc(C)on3)nc2c1  10.2%
26. CN(C)c1ccc(-c2nc3cc(N)ccc3o2)cc1  10.2%
27. COc1cc(/C=N/NC(=O)c2ccc(N(C)S(=O)(=O)c3ccccc3)cc2)cc(OC)c1OC  10.6%
28. CC(C)N1CCN(Cc2cc(F)ccc2-n2cccn2)CC1CCO (stereo not shown)  10.7%
29. Cc1cc(C)n(S(=O)(=O)c2cc(Cl)ccc2Cl)n1  10.8%
30. Cc1oc2c(c1C(=O)Nc1cccc(C(=O)O)c1)CCCC2  10.8%
31. CSc1nnc(-c2ccccc2SC)o1  10.8%
32. Cc1nn(CCc2n[nH]c(=S)n2-c2ccc(F)cc2)c(C)c1[N+](=O)[O-]  12.2%
33. COCc1cc(C)nc(SCC(=O)Nc2ccc3c(c2)OCO3)c1C#N  12.6%
34. Cc1ccc(OC(C)C(=O)Nc2ccncc2)cc1C (stereo not shown)  13%
35. NS(=O)(=O)c1ccc(N/C=C\C(=O)c2ccncc2)cc1  13.7%
36. CN(C[C@H](c1ccccc1)N(C[C@H](Cc1ccccc1)N(CCc1ccccc1)N=O)N=O)N=O.[Na+]  13.8%
37. CCOC(=O)C1CCN(C(=O)C2CCN(S(=O)(=O)N3CCC4(CC3)OCCO4)CC2)CC1  14.1%
38. O=C(CSc1nc(O)c(Cc2ccccc2)c(=O)[nH]1)Nc1nc2c(s1)CCCC2  14.6%
39. CCC(=O)N1N=C(c2ccc(C)o2)CC1c1ccc(N(C)C)cc1 (stereo not shown)  14.7%
40. CC(C)c1cc(-c2cc(C(=O)Nc3ccccc3)on2)nc(NCC2CC2)n1  15.6%
41. CC(C)C(C)NC(=O)COc1ncnc2ccccc12 (stereo not shown)  16.1%
42. O=[N+]([O-])c1ccc(/C=N/Nc2nc3ccccc3o2)cc1  18.5%
43. CCCCOc1ccc(C2(C)NC(=O)N(C)C2=O)cc1 (stereo not shown)  19.3%
